Data reported in PubChem BioAssay AID602356 (Sanford-Burnham Center for Chemical Genomics, 2012).
A number of entries come with more than one value. This list holds those alone. No rule for the calls is given here. The source may hold further records. Values that stand side by side are repeats in other runs, samples, wells, individuals or studies. What stands in brackets tells the records apart. A, B and so on number the origins entry by entry.

Target: Neurotensin receptor type 1 (Homo sapiens) (UniProt P30989)
Sequence of UniProt P30989 (P30989 whole entry, looked up): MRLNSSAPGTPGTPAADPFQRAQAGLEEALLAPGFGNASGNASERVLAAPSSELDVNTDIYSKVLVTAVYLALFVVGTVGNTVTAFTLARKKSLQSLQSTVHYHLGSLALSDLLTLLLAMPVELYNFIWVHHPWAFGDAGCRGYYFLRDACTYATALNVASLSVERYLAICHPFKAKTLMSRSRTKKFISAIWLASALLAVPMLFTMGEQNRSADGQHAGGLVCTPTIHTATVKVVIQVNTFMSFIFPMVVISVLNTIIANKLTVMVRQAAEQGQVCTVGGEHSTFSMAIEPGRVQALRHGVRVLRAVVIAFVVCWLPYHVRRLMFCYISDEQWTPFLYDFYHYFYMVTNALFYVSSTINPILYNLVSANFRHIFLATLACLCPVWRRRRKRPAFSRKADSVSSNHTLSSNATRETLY
Test: neurotensin receptor 1 activation – imaging, image-based, set 3, SAR follow-up (AID 602356)
Details: NTR1 image-based agonist assay, cellular imaging

Q: For `COc1cc2nc(-c3ccccc3)nc(N3CCN(c4ccccc4OC)CC3)c2cc1OC`, which EC50 is on record?
A: 8.72 µM [sample A] and inactive [sample B]
